Laboratory results published in the Deep4Chem optical property database.

Assay: solvent given as SMILES

SMILES | absorption maximum (in C1COCCO1) [nm] | absorption maximum (in CC#N) [nm] | absorption maximum (in CC(=O)N(C)C) [nm] | absorption maximum (in CCCCCCCCCCO) [nm] | absorption maximum (in CCCCCCCCO) [nm] | absorption maximum (in CCCCCCO) [nm] | absorption maximum (in CCCCO) [nm] | absorption maximum (in CCO) [nm] | absorption maximum (in CS(C)=O) [nm] | absorption maximum (in Cc1ccccc1) [nm] | absorption maximum (in ClC(Cl)Cl) [nm] | absorption maximum (in C1CCOC1) [nm] | absorption maximum (in CCCCCC) [nm] | absorption maximum (in CCOC(C)=O) [nm] | absorption maximum (in CCOCC) [nm]
COC(=O)c1ccc(-c2ccc(-c3nnc(-c4ccc(-c5nnc(-c6ccc(-c7ccc(C(=O)OC)cc7)s6)o5)cc4)o3)s2)cc1 | 344 | 338 | 341 | 336 | 334 | 340 | 337 | 333 | 350 | 345 | 345 | – | – | – | –
CN(C)c1ccc2c(c1)Cc1ccccc1-2 | 310 | – | 312 | – | – | – | – | – | 316 | – | – | 310 | 303 | 307 | 305
C1=C/C2=C(\c3ccccc3)c3c[nH]c(c3)/C(c3ccccc3)=C3/C=CC(=N3)/C(c3ccccc3)=c3/cc/c([nH]3)=C(\c3ccccc3)C1=N2 | – | – | 699 | – | – | – | – | – | – | – | – | – | – | – | –
